Assay results as given in PMC10368733.
Results are given in words; binding and its absence hold for the method and conditions named. For some assays here: Binding seen in cells or lysates may run through a third protein. Some results given as binding are weak or reduced against the parent protein; the word gives no strength. For some assays here: Tags and fused reporters may be left off the sequences shown.

Amino acid sequences for entries named in this document (tags omitted).
UniProt P03372: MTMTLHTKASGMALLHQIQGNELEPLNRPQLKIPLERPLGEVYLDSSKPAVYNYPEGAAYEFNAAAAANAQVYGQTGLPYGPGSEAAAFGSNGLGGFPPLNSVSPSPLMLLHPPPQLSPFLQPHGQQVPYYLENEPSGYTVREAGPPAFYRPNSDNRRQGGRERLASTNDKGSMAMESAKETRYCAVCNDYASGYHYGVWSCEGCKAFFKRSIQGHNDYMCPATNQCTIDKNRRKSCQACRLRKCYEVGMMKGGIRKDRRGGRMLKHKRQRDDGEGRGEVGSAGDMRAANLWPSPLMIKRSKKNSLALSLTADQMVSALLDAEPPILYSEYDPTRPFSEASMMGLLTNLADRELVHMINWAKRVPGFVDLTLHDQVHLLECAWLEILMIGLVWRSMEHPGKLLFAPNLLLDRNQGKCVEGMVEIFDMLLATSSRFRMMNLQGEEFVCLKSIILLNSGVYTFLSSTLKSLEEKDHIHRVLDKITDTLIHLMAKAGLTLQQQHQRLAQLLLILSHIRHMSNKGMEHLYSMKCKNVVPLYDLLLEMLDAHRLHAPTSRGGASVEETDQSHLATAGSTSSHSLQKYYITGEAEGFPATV
UniProt O14733: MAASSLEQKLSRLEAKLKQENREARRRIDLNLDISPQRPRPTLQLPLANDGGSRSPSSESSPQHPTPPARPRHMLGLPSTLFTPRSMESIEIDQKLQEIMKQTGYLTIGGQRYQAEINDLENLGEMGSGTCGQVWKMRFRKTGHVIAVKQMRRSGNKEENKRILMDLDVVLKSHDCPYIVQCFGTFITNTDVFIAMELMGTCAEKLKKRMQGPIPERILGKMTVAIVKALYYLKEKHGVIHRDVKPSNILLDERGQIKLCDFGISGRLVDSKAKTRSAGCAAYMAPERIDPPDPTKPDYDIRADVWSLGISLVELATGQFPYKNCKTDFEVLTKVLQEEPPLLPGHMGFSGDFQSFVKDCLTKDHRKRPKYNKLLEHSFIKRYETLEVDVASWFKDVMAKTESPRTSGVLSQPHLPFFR

T1: septin 11, endogenous in HAEC (human (endogenous in HAEC)) (UniProt Q9NVA2)
T1 sequence: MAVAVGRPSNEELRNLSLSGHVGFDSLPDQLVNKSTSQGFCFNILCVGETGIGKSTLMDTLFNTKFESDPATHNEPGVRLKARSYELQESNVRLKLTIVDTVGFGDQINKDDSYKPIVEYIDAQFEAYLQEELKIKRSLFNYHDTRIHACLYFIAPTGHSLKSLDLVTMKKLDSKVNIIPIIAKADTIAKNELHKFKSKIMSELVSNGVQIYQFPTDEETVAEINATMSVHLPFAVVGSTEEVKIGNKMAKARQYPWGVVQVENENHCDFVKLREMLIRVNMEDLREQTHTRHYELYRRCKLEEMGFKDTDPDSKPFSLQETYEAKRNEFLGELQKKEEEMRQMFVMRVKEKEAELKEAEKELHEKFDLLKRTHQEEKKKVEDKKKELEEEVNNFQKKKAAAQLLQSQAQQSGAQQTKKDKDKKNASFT

B1: septin 11, endogenous in HAEC (protein, UniProt Q9NVA2 1-429)
chain: MAVAVGRPSNEELRNLSLSGHVGFDSLPDQLVNKSTSQGFCFNILCVGETGIGKSTLMDTLFNTKFESDPATHNEPGVRLKARSYELQESNVRLKLTIVDTVGFGDQINKDDSYKPIVEYIDAQFEAYLQEELKIKRSLFNYHDTRIHACLYFIAPTGHSLKSLDLVTMKKLDSKVNIIPIIAKADTIAKNELHKFKSKIMSELVSNGVQIYQFPTDEETVAEINATMSVHLPFAVVGSTEEVKIGNKMAKARQYPWGVVQVENENHCDFVKLREMLIRVNMEDLREQTHTRHYELYRRCKLEEMGFKDTDPDSKPFSLQETYEAKRNEFLGELQKKEEEMRQMFVMRVKEKEAELKEAEKELHEKFDLLKRTHQEEKKKVEDKKKELEEEVNNFQKKKAAAQLLQSQAQQSGAQQTKKDKDKKNASFT
B2: GADD45β, endogenous in HAEC (protein, UniProt O75293 1-160)
chain: MTLEELVACDNAAQKMQTVTAAVEELLVAAQRQDRLTVGVYESAKLMNVDPDSVVLCLLAIDEEEEDDIALQIHFTLIQSFCCDNDINIVRVSGMQRLAQLLGEPAETQGTTEARDLHCLLVTNPHTDAWKSHGLVEVASYCEESRGNNQWVPYISLQER
B3: flag-septin 11-WT (wild-type) (protein, UniProt Q9NVA2 1-429)
chain: MAVAVGRPSNEELRNLSLSGHVGFDSLPDQLVNKSTSQGFCFNILCVGETGIGKSTLMDTLFNTKFESDPATHNEPGVRLKARSYELQESNVRLKLTIVDTVGFGDQINKDDSYKPIVEYIDAQFEAYLQEELKIKRSLFNYHDTRIHACLYFIAPTGHSLKSLDLVTMKKLDSKVNIIPIIAKADTIAKNELHKFKSKIMSELVSNGVQIYQFPTDEETVAEINATMSVHLPFAVVGSTEEVKIGNKMAKARQYPWGVVQVENENHCDFVKLREMLIRVNMEDLREQTHTRHYELYRRCKLEEMGFKDTDPDSKPFSLQETYEAKRNEFLGELQKKEEEMRQMFVMRVKEKEAELKEAEKELHEKFDLLKRTHQEEKKKVEDKKKELEEEVNNFQKKKAAAQLLQSQAQQSGAQQTKKDKDKKNASFT
B4: c-Myc-GADD45β (protein, UniProt O75293 1-160)
chain: MTLEELVACDNAAQKMQTVTAAVEELLVAAQRQDRLTVGVYESAKLMNVDPDSVVLCLLAIDEEEEDDIALQIHFTLIQSFCCDNDINIVRVSGMQRLAQLLGEPAETQGTTEARDLHCLLVTNPHTDAWKSHGLVEVASYCEESRGNNQWVPYISLQER
B5: wild-type septin 11, reconstituted in HAEC by lentivirus (protein, UniProt Q9NVA2 1-429)
chain: MAVAVGRPSNEELRNLSLSGHVGFDSLPDQLVNKSTSQGFCFNILCVGETGIGKSTLMDTLFNTKFESDPATHNEPGVRLKARSYELQESNVRLKLTIVDTVGFGDQINKDDSYKPIVEYIDAQFEAYLQEELKIKRSLFNYHDTRIHACLYFIAPTGHSLKSLDLVTMKKLDSKVNIIPIIAKADTIAKNELHKFKSKIMSELVSNGVQIYQFPTDEETVAEINATMSVHLPFAVVGSTEEVKIGNKMAKARQYPWGVVQVENENHCDFVKLREMLIRVNMEDLREQTHTRHYELYRRCKLEEMGFKDTDPDSKPFSLQETYEAKRNEFLGELQKKEEEMRQMFVMRVKEKEAELKEAEKELHEKFDLLKRTHQEEKKKVEDKKKELEEEVNNFQKKKAAAQLLQSQAQQSGAQQTKKDKDKKNASFT
B6: flag-septin 11-∆G4 (protein, UniProt Q9NVA2)
chain: MAVAVGRPSNEELRNLSLSGHVGFDSLPDQLVNKSTSQGFCFNILCVGETGIGKSTLMDTLFNTKFESDPATHNEPGVRLKARSYELQESNVRLKLTIVDTVGFGDQINKDDSYKPIVEYIDAQFEAYLQEELKIKRSLFNYHDTRIHACLYFIAPTGHSLKSLDLVTMKKLDSKVNIIPIIALHKFKSKIMSELVSNGVQIYQFPTDEETVAEINATMSVHLPFAVVGSTEEVKIGNKMAKARQYPWGVVQVENENHCDFVKLREMLIRVNMEDLREQTHTRHYELYRRCKLEEMGFKDTDPDSKPFSLQETYEAKRNEFLGELQKKEEEMRQMFVMRVKEKEAELKEAEKELHEKFDLLKRTHQEEKKKVEDKKKELEEEVNNFQKKKAAAQLLQSQAQQSGAQQTKKDKDKKNASFT
B7: flag-septin 11-∆GTP (protein, UniProt Q9NVA2)
chain: MAVAVGRPSNEELRNLSLSGHVGFDSLPDQLVNKSTSMGFKDTDPDSKPFSLQETYEAKRNEFLGELQKKEEEMRQMFVMRVKEKEAELKEAEKELHEKFDLLKRTHQEEKKKVEDKKKELEEEVNNFQKKKAAAQLLQSQAQQSGAQQTKKDKDKKNASFT
B8: septin 11-∆G4, reconstituted in HAEC by lentivirus (protein, UniProt Q9NVA2)
chain: MAVAVGRPSNEELRNLSLSGHVGFDSLPDQLVNKSTSQGFCFNILCVGETGIGKSTLMDTLFNTKFESDPATHNEPGVRLKARSYELQESNVRLKLTIVDTVGFGDQINKDDSYKPIVEYIDAQFEAYLQEELKIKRSLFNYHDTRIHACLYFIAPTGHSLKSLDLVTMKKLDSKVNIIPIIALHKFKSKIMSELVSNGVQIYQFPTDEETVAEINATMSVHLPFAVVGSTEEVKIGNKMAKARQYPWGVVQVENENHCDFVKLREMLIRVNMEDLREQTHTRHYELYRRCKLEEMGFKDTDPDSKPFSLQETYEAKRNEFLGELQKKEEEMRQMFVMRVKEKEAELKEAEKELHEKFDLLKRTHQEEKKKVEDKKKELEEEVNNFQKKKAAAQLLQSQAQQSGAQQTKKDKDKKNASFT
B9: septin 11-∆GTP, reconstituted in HAEC by lentivirus (protein, UniProt Q9NVA2)
chain: MAVAVGRPSNEELRNLSLSGHVGFDSLPDQLVNKSTSMGFKDTDPDSKPFSLQETYEAKRNEFLGELQKKEEEMRQMFVMRVKEKEAELKEAEKELHEKFDLLKRTHQEEKKKVEDKKKELEEEVNNFQKKKAAAQLLQSQAQQSGAQQTKKDKDKKNASFT

Legend:
[1] = target: T1, septin 11, endogenous in HAEC (human (endogenous in HAEC)); assay: co-IP; endogenous proteins in HAEC lysate (25 mM Tris-HCl pH 7.4, 150 mM NaCl, 1% NP-40, 1 mM EDTA, 5% glycerol); IP with anti-ERα, anti-septin 11 or anti-MKK7, 4 °C overnight; cells treated with vehicle, E2 or 27HC (0 to 30 min); immunoblot
[2] = target: estrogen receptor alpha (ERα), endogenous in HAEC (human (endogenous in HAEC)) (UniProt P03372); assay: as above
[3] = target: MKK7, endogenous in HAEC (human (endogenous in HAEC)) (UniProt O14733); assay: as above
HA-MKK7 [4] = target: HA-MKK7 (UniProt O14733); assay: pull-down; HA-tagged MKK7 bound to beads, complex with GADD45β formed first, then wild-type septin 11 or deletion mutants added; immunoblot (Fig. 4g); both purified
HA-MKK7 [5] = target: HA-MKK7 (UniProt O14733); assay: pull-down; purified recombinant tagged proteins; bait on beads pre-blocked with 1% BSA, 1 h at 37 °C, prey added 1 h at 37 °C; immunoblot (Supplementary Fig. 9b, c); both purified
[6] = target: MKK7, endogenous in HAEC (human (endogenous in HAEC)) (UniProt O14733); assay: co-IP; HAEC with endogenous septin 11 knocked down by shRNA and reconstituted by lentivirus with wild-type septin 11, septin 11-∆G4 or septin 11-∆GTP; vehicle or 27HC; immunoblot

Molecule	binding (HA-MKK7 [5])	binding [6]	further results
MKK7, endogenous in HAEC (from UniProt O14733 1-419) (enzyme)	–	–	binding [1]: binds
B1	–	–	binding [2]: binds
B2	–	–	binding [3]: binds
B3	binds	–	binding (HA-MKK7 [4]): binds
B4	–	–	binding (HA-MKK7 [4]): binds
B5	–	binds	–
B6	no binding	–	–
B7	no binding	–	–
B8	–	no binding	–
B9	–	no binding	–
